In all, about 110,000 compounds were measured (“z-score”: median about -0.1, highest 2% from about 2 on). Some of the results follow. The source made the active and inactive calls.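 The calls were made as follows: active = z-score in the third read window above 3 or below -3; inactive = the rest.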

The experiment concerns the target Metabotropic glutamate receptor 8 (Rattus norvegicus) (UniProt P70579). Put plainly: rat mGluR8 modulators via GIRK flux, primary screen, cell-based, thallium flux, HTS (AID 488969). The note with it: HEK293 rat mGluR8, GIRK (G protein-gated inwardly rectifying potassium channel) thallium flux, FluoZin2; at 10 µM; stronger effect = higher value; submaximal glutamate (EC20) added with thallium.
Chain of UniProt P70579 (P70579 whole entry, looked up): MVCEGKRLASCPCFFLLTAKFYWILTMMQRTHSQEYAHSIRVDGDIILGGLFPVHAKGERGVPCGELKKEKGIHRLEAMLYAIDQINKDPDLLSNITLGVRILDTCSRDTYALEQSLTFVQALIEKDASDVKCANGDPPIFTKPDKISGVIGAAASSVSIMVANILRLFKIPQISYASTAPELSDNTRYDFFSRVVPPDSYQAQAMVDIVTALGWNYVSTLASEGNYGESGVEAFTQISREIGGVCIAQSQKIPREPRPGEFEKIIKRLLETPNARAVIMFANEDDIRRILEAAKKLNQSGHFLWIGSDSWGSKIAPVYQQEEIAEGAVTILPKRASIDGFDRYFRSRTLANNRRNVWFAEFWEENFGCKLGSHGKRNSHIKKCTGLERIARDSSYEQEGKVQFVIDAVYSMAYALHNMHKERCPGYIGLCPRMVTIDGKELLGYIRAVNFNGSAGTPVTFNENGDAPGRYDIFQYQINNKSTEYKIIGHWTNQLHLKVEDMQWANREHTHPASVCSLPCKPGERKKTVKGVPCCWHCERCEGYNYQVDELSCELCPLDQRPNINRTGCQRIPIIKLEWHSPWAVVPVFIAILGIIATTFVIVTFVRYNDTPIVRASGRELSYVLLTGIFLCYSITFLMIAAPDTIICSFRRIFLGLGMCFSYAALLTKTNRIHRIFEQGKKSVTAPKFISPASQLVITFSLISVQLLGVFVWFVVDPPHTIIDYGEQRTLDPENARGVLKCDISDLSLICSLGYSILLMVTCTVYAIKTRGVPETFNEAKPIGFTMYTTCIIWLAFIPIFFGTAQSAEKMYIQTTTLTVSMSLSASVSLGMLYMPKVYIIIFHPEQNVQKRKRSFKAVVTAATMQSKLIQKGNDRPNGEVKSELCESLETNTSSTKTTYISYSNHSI
Turning to `COc1ccc(S(=O)(=O)N(C)CC(=O)Nc2ccccc2C(F)(F)F)cc1OC`, the z-score is 0.543. As to `COc1ccc(N(C(C)=O)S(=O)(=O)c2cccs2)cc1`, the z-score is 0.0114. Regarding `CC(=O)N/C(=N\OCc1ccc(Br)cc1)c1nonc1NC(C)=O`, the z-score is -0.0808. Consider `Cc1ccc(S(=O)(=O)NCCN=C(CN2CCOCC2)NS(=O)(=O)c2ccc(C)cc2)cc1`, for which the z-score is -0.52. With `Cc1ccccc1C(=O)NNC(=O)CSc1nnc(-c2ccncc2)n1-c1ccccc1`, the z-score is -0.143.

As for `N#Cc1cc2sc3nc4ccccc4n3c2cc1C#N`, the z-score was 0.165.

As for `Cc1cc(C)nc(NN2C(=O)/C(=C/c3ccccc3)SC2=S)n1`, the z-score was -0.183. The value for `Cc1ccccc1OCC(=O)NC(=S)Nc1ccc2c3c(cccc13)CC2` was 0.22. Take `Cc1nn(C(C)C(=O)Nc2sc3c(c2C#N)CCCC3)c(C)c1[N+](=O)[O-]` (stereo not drawn): the z-score was -0.3.

The compound `Cc1ccc(NC(=O)COc2ccc(-n3ccnc3)cc2)cc1Cl` gave a z-score of -0.0663. Take `COC(=O)c1nn(-c2ccccc2)c(Sc2ccc(C)cc2)c1/C=N/O`: the z-score came out at 0.0362. In the case of `CN(C1CCCCC1)S(=O)(=O)c1cccc(C(=O)OCC(=O)NC2CCCc3ccccc32)c1` (stereo not drawn), the z-score was -0.257.

`Cc1ccc(-n2nc3cc(C)c(NC(=S)NC(=O)/C=C/c4ccco4)cc3n2)cc1` gave a z-score of 0.457. For the compound `COc1cccc(/C=C/C(=O)NCCc2ccc3c(c2)OCCO3)c1`, the z-score is -0.402. The value for `COc1ccc(C(NC(=O)C(C)(C)C)NC(=O)C(C)(C)C)cc1` was 0.0766; that for `CCCCOC(=O)CNc1nnc(SCC(=O)OCC)[nH]c1=O` was -0.241. The compound `COc1ccc(Cl)cc1NC(=O)Cn1c(=O)n2nc(C)nc2c2ccccc21` yielded a z-score of -0.181. Turning to `CC(=O)Nc1ccc(NC(=O)C2CCN(c3c(Cc4ccccc4)c(C)nc4ncnn34)CC2)cc1`, the z-score is -0.271. Consider `O=C(NC1CCCC1)C(c1ccc(F)cc1)N(Cc1ccc(F)cc1)C(=O)CCl` (stereo not drawn), for which the z-score is -1.37.

The compound `CC(C)c1ccc(C2N3CC4([N+](=O)[O-])CN2CC([N+](=O)[O-])(C3)C4(C)C)cc1` (stereo not drawn) came in with a z-score of -0.2.

For the compound `Cc1cccc(NC(=O)C2CCN(S(=O)(=O)c3c(C)noc3/C=C/c3ccco3)CC2)n1`, the z-score is -0.221.

For `Cc1c(NC(=O)C(C#N)=C2CCCCC2)c(=O)n(-c2ccccc2)n1C`, the z-score is -0.108. The compound `CCCCCCn1c(N(CC)CC)nc2c1c(=O)[nH]c(=O)n2C` displayed a z-score of -0.704.

On to `O=C(O)COc1ccc(=O)n(-c2ccccc2)n1`, for which the z-score is -0.184. As to `CN1CCN(c2ccc([N+](=O)[O-])cc2C(=O)N2CCOCC2)CC1`, the z-score is -0.246. `CC(=O)Oc1ccc(C)cc1-n1nc2ccccc2n1` had a z-score of -0.0619.

For the compound `NCCCCCc1nnc(SCc2ccc(Cl)c(Cl)c2)o1`, the z-score amounted to 0.93.

In turn, `COCc1cc(C)nc(OCC(=O)N/N=C/c2ccc(OC)c(OC)c2)c1C#N` returned a z-score of -0.267. As to `O=C(COc1nc2ccccc2nc1N1CCOCC1)NCC(F)(F)F`, the z-score was -0.11. In turn, `CCOC(=O)CCc1c(C)c2ccc(O)cc2oc1=O` registered a z-score of 0.0647.

In the case of `COc1ccc(C)cc1NC(=O)COCC(=O)O`, the z-score is 0.862.

`O=C(c1cccnc1)N1CCN(CCCc2ccccc2)CC1` had a z-score of -0.407. In the case of `O=C(CN1C(=O)NC2(CCc3ccccc32)C1=O)Nc1ccc(N2CCOCC2)cc1` (stereo not drawn), the z-score was -0.205. `O=C(Nc1nccs1)c1ccc(S(=O)(=O)c2ccccc2)cc1` displayed a z-score of 0.246. The same measure for `Cc1cccc(C)c1N(CC(=O)N/N=C/c1cc(Br)c(C)o1)S(C)(=O)=O`: -0.0896; for `O=C(Cn1c(=O)n(CC2CCCO2)c(=O)c2ccccc21)N1CCN(c2ccccc2)CC1` (stereo not drawn): -0.348; for `Cc1ccc(-c2nc3cccnc3s2)cc1NS(=O)(=O)c1ccc2c(c1)OCCO2`: 0.273.

`O=C(/C=C/c1ccc(OCCCF)cc1)NCc1ccc(Cl)c(Cl)c1` registered a z-score of -0.15. `Cc1cccc(NC(=O)c2cc(-c3ccc(C)s3)nc3ccccc23)n1` came in with a z-score of -0.074. The compound `COc1ccc(CN=C(C)c2c(C(F)(F)F)[nH]n(-c3nc4ccccc4s3)c2=O)cc1` gave a z-score of 0.0112. The compound `Cc1cc(Nc2ccc3c(c2)OCCO3)n2nc(C)nc2n1` gave a z-score of -0.0724. `CCN(CC)S(=O)(=O)c1ccc2c(c1)nc(CCC(=O)Nc1cccc(C(F)(F)F)c1)n2CC`: the z-score was -0.277.

Regarding `CC(=O)N1CCN(S(=O)(=O)c2cccc(C(=O)Nc3nc4c(s3)CCCC4)c2)CC1`, the z-score was -0.112. As to `Cn1c(N=NC(=O)c2ccccc2)c(O)c2ccccc21`, the z-score is -0.347.

`COc1cc(/C=C2\SC(=S)N(N3CCOCC3)C2=O)cc(OC)c1OC` registered a z-score of -0.257. For the compound `CC(C)n1nnnc1SCC(=O)NCc1ccc2c(c1)OCO2`, the z-score was -0.277.

The compound `CCC(=O)N1CCc2cc(S(=O)(=O)NC(C(=O)NC(C)c3ccccc3)C(C)C)ccc21` (stereo not drawn) had a z-score of -0.383. The compound `COc1cccc(NC(=O)c2oc3ccccc3c2NC(=O)c2ccc3c(c2)OCO3)c1` registered a z-score of 0.209. The compound `COc1cc(/C=C2/SC(=S)N(C)C2=O)ccc1OC(=O)c1ccco1` displayed a z-score of -0.377.

`c1ccc2c(c1)nnn2Cc1nnc2sc(-c3ccncc3)nn12` came in with a z-score of -0.326.

In turn, `COc1ccccc1OC(=O)c1ccc(SC)cc1OC` showed a z-score of 0.254.

On to `CC1CCN(S(=O)(=O)c2ccc3c(c2)C(=NO)c2cc(S(=O)(=O)N4CCC(C)CC4)ccc2-3)CC1`, for which the z-score amounted to 0.115. The same measure for `CCOC(=O)c1cnn(-c2nc(SC)nc3sc4c(c23)CCCC4)c1N`: 0.141; for `O=C1c2ccccc2C(=O)N1CCCc1nc(-c2ccncc2)no1`: -0.0106.

`Cc1[nH]c2ccccc2c1/C=N/Nc1ccc(F)cc1F` gave a z-score of 0.0188. In turn, `CCS(=O)(=O)N1CCC(c2nc(-c3ccc(C(F)(F)F)cc3)no2)CC1` returned a z-score of -0.221. On to `Cc1cc(Oc2ccccc2)nc(N2CCOCC2)n1`, for which the z-score is -0.111. `N/C(=N\S(=O)(=O)c1cccs1)c1ccccc1` showed a z-score of 0.185.

`O=C(O)CSCCC(=O)Nc1ccc(F)cc1` displayed a z-score of -0.224.

`C=CCNC(=O)c1onc(CCl)c1C(=O)OC` returned a z-score of -0.228. For `Cc1[nH]n(-c2ccccc2)c(=S)c1C=Nc1cccc([N+](=O)[O-])c1`, the z-score was -0.78. In turn, `O=C(O)c1ccc2c(c1)CC(c1ccccc1)OC2=O` (stereo not drawn) displayed a z-score of -0.453. As for `CC(C)OC(=O)c1cn(-c2ccccc2)nc1-c1ccco1`, the z-score is -0.552. Regarding `COc1ccc(-n2cnnc2SCC(=O)Nc2cccc(S(=O)(=O)N3CCCCC3)c2)cc1`, the z-score was -0.523. The same measure for `Cc1cccc(NC(=O)CO/N=C/c2ccc3c(c2)OCO3)c1`: -0.175. For the compound `Cc1cc(=O)oc2cc(OCC(=O)N3c4ccccc4CC3C)ccc12` (stereo not drawn), the z-score was -0.325. The compound `Cc1ccc(-c2cc(C(=O)Nc3cc(C)on3)c3ccccc3n2)cc1` showed a z-score of -0.321. As to `O=C(COc1ccccc1)NC(=S)Nc1ccc2c(c1)Cc1ccccc1-2`, the z-score was active: 6.86.

The values above are taken from PubChem BioAssay AID488969 (Vanderbilt High Throughput Screening Facility, 2010).
